Laboratory results taken from PubChem BioAssay AID1963576 (National Center for Advancing Translational Sciences (NCATS), 2024).
In all, about 46,000 compounds went through this assay and about 60 (0.1%) were called active. Another 3% or so got no clear call; they are omitted. Calls follow the shape of the dose curve; as a rule, active = well fitted inhibition curve with a large enough effect; inconclusive = small, poorly fitted or top-dose-only effect; inactive = no such curve, though single readings can be large or run the other way. The list shows a part of the results.

assay: Primary qHTS assay for Inhibitors of ovarian cancer metastasis using an organotypic tumor microenvironment (TME) model.; also: nearly all actives have a fitted effect of over 65% in size;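 as to Potency: count of GFP cancer cells still attached after washing and fixation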;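 as to activity change, negative = inhibition: plate controls were DMSO wells for no effect and tomatine positive control wells for full effect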; conditions: SKOV3ip1-GFP adhesion/invasion on 3D omental model, fluorescence; series mostly up to 45.8 µM; activity change, negative = inhibition: at the top concentration
In short: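 Adhesion/invasion was scored as fixed GFP-labeled SKOV3ip1 cell counts (488/509 nm), normalized to DMSO and tomatine controls. Cancer cells in serum-free medium, with four compound doses (0.36-46 umol/L), sat 2 hr at RT then 16 hr at 37 C on a 48 hr fibroblast/mesothelial/ECM culture.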
Potency is read from the fitted curve at half-maximal effect.

Activity change, negative = inhibition, inactive:
COc1ccc(NC(=O)CSc2nc3nc(C)cc(C)n3n2)cc1 37.3%
Cc1c(CNCc2ccc(Cl)cc2)c(C(=O)O)c(C)n1Cc1ccc(F)cc1 2.6%
CCOc1ccc(CNS(=O)(=O)c2ccc3[nH]c4c(c3c2)CCCC4)cc1OC -8.83%
CCOc1ccc(CNC(=O)C2CCN(S(=O)(=O)c3c(C)noc3/C=C/c3ccc(C)cc3)CC2)cc1OC 3.45%
CC(=O)Nc1ccc(NC(=O)CC2Sc3ccccc3NC2=O)cc1 (stereo not given) -0.396%
COc1ccc(NC(=O)Cn2c(CCC(=O)O)ccc2-c2ccccc2)cc1Cl 8.61%
COc1cccc(CNC(=O)CCc2nnc3n(C)c(=O)c4sccc4n23)c1 -7.76%
CCCN(CCC)CCCNC(=O)C1CCC(CNS(=O)(=O)c2ccc(NC(C)=O)cc2)CC1 (stereo not given) -3.38%
Nc1ccc(S(=O)(=O)Nc2ccccn2)cc1 -4.41%
CCN1CCC(n2cc(CNc3cc(Cl)c4ncc(C#N)c(Nc5ccc(F)c(Cl)c5)c4c3)nn2)CC1 -1.46%
CCOC(=O)c1c(C)oc2nc(C)nc(Nc3cccc(OC)c3)c12 9.02%
CCOC(=O)Cc1ccc(NC(=O)n2ncc3c(C)cccc32)cc1 3.08%
Cn1cc(-c2ccncc2)c(-c2ccc(OCc3ccc4ccccc4n3)cc2)n1 4.46%
CCC(O)c1nc2ccccc2n1Cc1cccc(Cl)c1 (stereo not given) 4.96%
COc1ccc(C(CNC(=O)COc2ccc(C)c(C)c2)N2CCCCC2)cc1 (stereo not given) -26.6%
COc1cc(OC)cc(C(=O)Nc2cc3nn(-c4ccccc4)nc3cc2Cl)c1 -12.1%
Cc1cc(C)c(NC(=O)Cn2nc3c(cc2=O)CCCC3)c(C)c1 -1.63%
COCCCN1C(=O)N(c2ccccc2)C(=O)C1CC(=O)Nc1ccc(F)cc1 (stereo not given) 4.7%
O=C(NCc1ccc2c(c1)CCN2C(=O)c1ccc(F)cc1)c1ccc(Br)o1 -8.37%
COc1ccccc1NC(=O)N1CC(=O)Nc2sc3c(c2C1c1ccccc1)CCCC3 (stereo not given) -4.64%
O=C(Nc1ccc(S(=O)(=O)Nc2ccccc2)cc1)N1CCCC1 7.59%
COc1ccccc1NC(=O)C1=C(C)Nc2c(C(=O)Nc3ccc(F)cc3)cnn2C1c1ccc(Cl)cc1 (stereo not given) -1.49%
CCOc1ccc(-c2oc3ccccc3c(=O)c2O)cc1OCC 0.584%
Cc1ccc(S(=O)(=O)Nc2cc3c(cc2C)n(C)c(=O)c(=O)n3C)cc1 -5.02%
Cn1c(=O)c2c(nc(SCC(=O)Nc3ccc(OC(F)(F)F)cc3)n2Cc2cccc(C(F)(F)F)c2)n(C)c1=O -4.3%
COc1cccc(CNC(=O)Cn2cc3c(n2)-c2c(oc(C(=O)N4CCCC4)c2C)CC3)c1OC -3.92%
CCc1nn(CC(=O)NCCc2ccc(OC)cc2OC)c(=O)c2cc3sccc3n12 7.02%
COc1cc(CNC(=O)c2cc(-c3ccccc3)n[nH]2)cc(OC)c1OC 10.7%
Cc1ccccc1NC(=O)CSc1nc(-c2ccc(F)cc2)c2cccc(C)c2n1 17.9%
COc1ccc(-n2nc(C(=O)N3CCC(C)CC3)c3c4ccccc4n(C)c3c2=O)cc1Cl 18%
CCOC(=O)c1sc2ccccc2c1S(=O)(=O)Nc1c(C)cccc1C -15.7%
Cc1cc(NC(=O)N2CC=C(c3c[nH]c4ccccc34)CC2)ccc1Br -4.38%
CCOC(=O)c1c(N)n(-c2ccc(C)c(C)c2)c2nc3ccccc3nc12 -8.73%
Cc1ccc(CSC2=Nc3ccccc3C3=NC(CCC(=O)N4CCN(c5ccccc5)CC4)C(=O)N23)cc1 (stereo not given) -10%
COc1cccc(-c2nc(SCC(=O)Nc3ccc4c(c3)OCO4)c(-c3ccccc3)[nH]2)c1 5.51%
CN(C)S(=O)(=O)N(CC(=O)NCCSCc1ccccc1Cl)c1ccccc1 1.72%
CCc1ccc(S(=O)(=O)c2nnn3c2nc(NCCc2ccccc2)c2sccc23)cc1 -7.34%
COc1cc(NC(=O)Cn2ncc3c(=O)oc4ccccc4c32)cc(OC)c1OC 8.62%
Cc1cccc(N2CCN(S(=O)(=O)c3cc(Br)cc4c3N(C(=O)C3CC3)CC4)CC2C)c1 (stereo not given) 6.46%
CC(C)OCCCn1c(SCc2cccc(Br)c2)nc2c(sc3ccccc32)c1=O 0.925%
CN1C(=O)Cc2cc(S(=O)(=O)CCC(=O)Nc3cccc(C(F)(F)F)c3)ccc21 -3.95%
CCOC(=O)C1(C)C=C(Nc2ccc(C(N)=O)cc2)C(=O)N1c1ccccc1 (stereo not given) 26.7%
CCOC(=O)c1cc(S(=O)(=O)Nc2ccc(OC)c(Cl)c2)[nH]n1 28.9%
CCOc1ccc(CCNC(=O)CCCc2nnc3n(CC(C)C)c(=O)c4sccc4n23)cc1 -1.47%
COc1ccc2c(Sc3ccccc3)c(C(=O)NCc3cccc(OC)c3OC)[nH]c2c1 3.21%
CC(=O)Nc1ccc(S(=O)(=O)Nc2cccc(-c3ccc(N4CCC(C)CC4)nn3)c2)cc1 3.71%
CC(=O)N1c2ccc(S(=O)(=O)NCC3CCC(C(=O)NCCC(C)C)CC3)cc2CC1C (stereo not given) 4.1%
Cc1ccc(OC(=O)c2cc(-c3ccccc3)nc3ccc(C)cc23)cc1 0.22%
O=C(Cc1ccccc1)Nc1sc2c(c1C(=O)Nc1ccccc1Cl)CCC2 0.589%
CCCc1cc(N2CCN(c3cc(Cl)ccc3C)CC2)n2cnnc2n1 1.91%
Cc1ccc(-n2nc3c(N4CCC(C(=O)N5CCCCC5)CC4)nnc(C)c3c2C)cc1 -3.41%
Cc1ccc(NC(=O)CCc2nnc3n(CC(C)C)c(=O)c4ccccc4n23)cc1C -1.37%
Cc1nn(CC(=O)NCCc2ccc(Cl)cc2)c(=O)c2cc3cc(F)ccc3n12 1.23%
Cc1ccc(NC(=O)CCn2cccn2)cc1Cl 2.53%
O=S(=O)(c1ccccc1)c1nnn2c1nc(NCc1cccs1)c1sccc12 4.3%
Cc1ccc2oc(C(=O)Nc3c(C(=O)Nc4ccccc4)oc4ccccc34)cc(=O)c2c1 8.55%
COC(=O)c1c(NC(=O)c2cc3nc(-c4ccc(OC)cc4)cc(C(F)(F)F)n3n2)sc2c1CCCC2 -0.949%
Cc1ccc(NC2=CC(c3ccccc3F)N(c3ccc(C)cc3)C2=O)cc1 (stereo not given) 7.53%
CCCCN(C)c1nnc(NC(=O)Nc2cccc(C(C)=O)c2)s1 1.74%
Cc1cc(C)cc(Nc2cc(-c3ccccc3)nc(C)n2)c1 -3.76%
COc1ccc(NC(=O)Cn2c(=O)n(-c3ccccc3)c(=O)c3c4c(sc32)CCCC4)cc1 87.4%
c1cncc(CN2CCC(n3ncc4c(N5CCOCC5)nc(-c5ccc6[nH]ccc6c5)nc43)CC2)c1 -16.5%
Cc1ccccc1-c1ncnn1-c1sc2c(c1C#N)CCCCC2 -5.2%
C[C@]12CC[C@@H]3c4ccc(O)cc4CC[C@H]3[C@H]1[C@@H](O)[C@@H](O)[C@H]2O 6.93%
COc1ccc(-c2cc(C(=O)OCC(=O)c3ccc(C)cc3)c3cccc(Cl)c3n2)cc1 -7.5%
O=C(CN1C=NS(=O)(=O)c2ccccc21)Nc1ccc(F)cc1 10.5%
O=C(NCc1cccs1)c1ccc2c(c1)N(Cc1ccccc1Cl)C(=O)c1ccccc1S2 14.9%
CCOc1ccccc1NC(=O)C(Cc1ccccc1)NS(=O)(=O)c1ccc2c(c1)oc(=O)n2C (stereo not given) 1.88%
COc1ccc(CNC(=O)c2cc3cc(C)ccc3n2C)cc1 -3.03%
CC(=O)NCCNC(=O)CCCc1nnc2n(C)c(=O)c3sccc3n12 4.3%
Cc1ccc(-n2c(=O)c3c(c4cc(C)ccc4n3C)n(CC(=O)NCc3ccccc3Cl)c2=O)cc1 -4.97%
O=C(NCc1ccccc1Br)c1ccc2nc(N3CCCCC3)sc2c1 21.8%
CCCCN(CCCC)C(=O)CN(C)S(=O)(=O)c1ccc2c(c1)c(=O)n(C)c(=O)n2C -3.08%

outcome, inactive:
Cc1ccc(Cl)cc1N1CCN(C(=O)c2cc(S(=O)(=O)N3CCC(C)CC3)cn2C)CC1
CCOc1ccc(CC(=O)Nc2c(C(=O)c3ccc(F)cc3)oc3ccccc23)cc1OCC
Cc1ccccc1CSc1cn(CCNC(=O)c2cccs2)c2ccccc12
COc1ccc(-c2noc(-c3ccc(NCc4ccc(C)cc4)c([N+](=O)[O-])c3)n2)cc1OC
Cn1nc(C(=O)NCc2ccccc2)c2c1-c1ccccc1SC2
O=C(Cn1c(=O)n(-c2ccc(F)cc2)c(=O)c2sc3ccccc3c21)N1CCCC1
Cc1ccc(-c2onc(C)c2C)cc1S(=O)(=O)N1CCCCC1
Cc1nc2c(cnn2-c2ccccc2Cl)c(=O)n1-c1ccc(C(C)C)cc1
CCCc1noc(-c2ccc(N3CCCCC3)c([N+](=O)[O-])c2)n1
COc1ccc(CCn2cc3c(c2-c2ccccc2Br)c(=O)n(C)c(=O)n3C)cc1OC
COc1ccccc1Oc1nc2c(c(=O)n(C)c(=O)n2C)n1Cc1cccc(Br)c1
COCCNC(=O)c1ccc2c(c1)N(Cc1cccc(Cl)c1)C(=O)c1ccccc1S2(=O)=O
COc1ccc(-c2cc(NCc3ccc(F)cc3)n3cnnc3n2)cc1
CCCN1C(=O)C(Cc2nc3ccccc3c(=O)n2CC)c2ccccc21 (stereo not given)
COc1ccc(CNC(=O)Cn2nc(C)c3nn(-c4ccc(Cl)cc4)c(C)c3c2=O)cc1
CCOc1ccc(CCNC(=O)CN2C(=O)COc3ccc(S(=O)(=O)N4CCC(C)CC4)cc32)cc1
CC(C)Cn1c(=O)c2ccccc2n2c(CCC(=O)NCc3ccccc3Cl)nnc12
COc1ccc(-c2cc3nc(C)c(CCC(=O)N4CCN(c5cccc(Cl)c5)CC4)c(C)n3n2)c(OC)c1
O=C(Nc1cc(F)ccc1F)C1CCN(c2nc3ccccc3n3cccc23)CC1
Cc1sc2c(c1C)c(=O)n(CCc1ccccc1)c(=O)n2Cc1cccc(F)c1
CC(Nc1ccc(-c2nc(-c3ccncc3)no2)cc1[N+](=O)[O-])c1ccccc1 (stereo not given)

Potency, active:
CCCS(=O)(=O)c1ncc(Cl)c(C(=O)N(Cc2ccccc2)Cc2ccco2)n1 2240 nM
